Results reported in US20210008166A1 (SPECTRUM PHARMACEUTICALS, published 2021).

Target: T1, Chinese hamster ovary (CHO) cell-derived soluble recombinant human G-CSF receptor (R&D Systems, 381-050/CF) (human, UniProt Q99062 25-627)
T1 construct: extracellular domain; Bought and amine-coupled to a CM5 chip; also called soluble human G-CSF receptor
T1 sequence (looked up): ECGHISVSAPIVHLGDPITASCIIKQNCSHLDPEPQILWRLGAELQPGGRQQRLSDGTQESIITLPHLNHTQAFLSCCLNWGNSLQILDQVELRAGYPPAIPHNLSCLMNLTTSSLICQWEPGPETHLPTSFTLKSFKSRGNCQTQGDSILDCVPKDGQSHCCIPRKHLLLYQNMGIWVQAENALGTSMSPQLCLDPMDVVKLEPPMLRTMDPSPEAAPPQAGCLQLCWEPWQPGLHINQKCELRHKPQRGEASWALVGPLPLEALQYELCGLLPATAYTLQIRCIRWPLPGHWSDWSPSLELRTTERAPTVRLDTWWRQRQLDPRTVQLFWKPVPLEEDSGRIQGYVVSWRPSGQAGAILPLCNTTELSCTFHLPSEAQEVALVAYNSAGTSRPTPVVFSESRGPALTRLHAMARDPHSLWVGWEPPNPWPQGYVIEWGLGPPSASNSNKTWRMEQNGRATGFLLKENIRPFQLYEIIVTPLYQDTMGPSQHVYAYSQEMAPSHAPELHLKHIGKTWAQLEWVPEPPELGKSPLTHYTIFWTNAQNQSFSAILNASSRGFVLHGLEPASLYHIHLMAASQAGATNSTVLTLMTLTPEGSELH
Test: SPR (BIAcore 3000), receptor amine-coupled to CM5 chip, analyte 5.5-88 nmol/L, 25 C, 1:1 Langmuir fit

- Kd: 3.6 nM
B1: Eflapegrastim (^17,65S-G-CSF-PEG-Fc protein complex; Ser^17,65-GCSF-polyethylene glycol-IgG4-Fc) (Fc fusion)
chain 1: TPLGPASSLPQSFLLKSLEQVRKIQGDGAALQEKLCATYKLCHPEELVLLGHSLGIPWAPLSSCSSQALQLAGCLSQLHSGLFLYQGLLQALEGISPELGPTLDTLQLDVADFATTIWQQMEELGMAPALQPTQGAMPAFASAFQRRAGGVLVASHLQSFLEVSYRVLRHLAQP
chain 2: [human IgG4 Fc left out]
modifications: aglycosylated (made in E. coli); N-terminus (proline) of only one of the two Fc chains is linked to the PEG; amino group of the N-terminus linked to one molecule of 3.4 kDa polyethylene glycol dialdehyde (the other PEG end is on the Fc N-terminus)
notes: also called HM10460A; SPI-2012
